Out of some 310,000 compounds screened, about 2,200 (0.71%) showed an effect of 50% or more. The effect is printed as a negative number. Some of the results follow.

Data on 87 compounds can be found in paper PMC4336329 (PLoS ONE, 2015).

Chain of human ether-à-go-go-related gene (hERG) potassium channel (Q12809 whole entry, looked up): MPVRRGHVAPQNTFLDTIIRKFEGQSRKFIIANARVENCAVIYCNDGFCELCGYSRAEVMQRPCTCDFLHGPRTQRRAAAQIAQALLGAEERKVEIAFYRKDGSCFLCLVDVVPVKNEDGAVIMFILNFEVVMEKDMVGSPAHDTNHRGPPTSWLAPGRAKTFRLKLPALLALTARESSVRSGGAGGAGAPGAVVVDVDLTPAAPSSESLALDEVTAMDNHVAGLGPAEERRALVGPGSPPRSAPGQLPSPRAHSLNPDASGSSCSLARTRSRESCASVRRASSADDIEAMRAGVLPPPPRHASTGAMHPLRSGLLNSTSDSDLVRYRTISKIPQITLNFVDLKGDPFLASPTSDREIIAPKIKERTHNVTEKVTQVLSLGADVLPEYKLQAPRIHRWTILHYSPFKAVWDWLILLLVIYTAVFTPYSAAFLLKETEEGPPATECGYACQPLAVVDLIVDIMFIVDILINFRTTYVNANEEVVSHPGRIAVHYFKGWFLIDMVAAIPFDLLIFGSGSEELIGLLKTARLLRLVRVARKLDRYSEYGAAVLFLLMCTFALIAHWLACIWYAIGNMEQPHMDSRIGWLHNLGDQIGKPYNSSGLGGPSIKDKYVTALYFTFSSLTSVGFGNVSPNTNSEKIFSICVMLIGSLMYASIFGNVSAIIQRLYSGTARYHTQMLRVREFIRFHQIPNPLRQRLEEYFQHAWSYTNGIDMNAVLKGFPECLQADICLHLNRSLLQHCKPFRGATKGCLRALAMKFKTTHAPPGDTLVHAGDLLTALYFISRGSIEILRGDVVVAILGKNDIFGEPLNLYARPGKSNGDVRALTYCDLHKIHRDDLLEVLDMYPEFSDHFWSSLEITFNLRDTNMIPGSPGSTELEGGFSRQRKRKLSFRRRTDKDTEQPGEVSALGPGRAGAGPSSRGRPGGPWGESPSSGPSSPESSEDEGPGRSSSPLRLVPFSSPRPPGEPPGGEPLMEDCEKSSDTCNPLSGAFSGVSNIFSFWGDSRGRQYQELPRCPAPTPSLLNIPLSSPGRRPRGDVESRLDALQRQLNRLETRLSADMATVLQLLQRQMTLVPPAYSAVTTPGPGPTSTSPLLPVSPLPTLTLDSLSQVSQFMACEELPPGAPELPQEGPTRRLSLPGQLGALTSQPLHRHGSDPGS

The experiment concerns the target human ether-à-go-go-related gene (hERG) potassium channel (human, UniProt Q12809). Description: primary screen, population patch clamp on CHO cells stably expressing hERG.
As to `N#Cc1ccsc1NC(=O)COc1ccc(-c2nnco2)cc1`, the “hERG current change (%, negative = inhibition) at 1uM” value was 10%.
Consider `CCCNC(=O)COc1ccc(S(=O)(=O)Nc2ccc(C)cc2)cc1`, for which the “hERG current change (%, negative = inhibition) at 1uM” value is -6.15%.
Take `O=C1C2CCCN2C(=S)N1c1ccccc1` (stereo not drawn): the “hERG current change (%, negative = inhibition) at 1uM” value came to 8.34%.
In the case of `CCOC(=O)CN1C(=O)S/C(=C\c2ccc(-c3ccc(C(=O)O)c(Cl)c3)o2)C1=O`, the “hERG current change (%, negative = inhibition) at 1uM” value was found to be 10.1%.
As for `O=[N+]([O-])c1cccnc1Sc1ccc(Cl)cc1`, the figure is 10.2%; as for `COc1cc(NC(=S)NC(=O)CC(C)C)ccc1NC(=O)c1cc2ccccc2o1`, 20.2%.
As for `COc1ccccc1N1CCN(S(=O)(=O)CCNC(=O)C23CC4CC(CC(C4)C2)C3)CC1`, the figure is 13.9%; as for `O=c1cc(CO)oc(C(Nc2ccccn2)c2ccccc2Cl)c1O` (stereo not drawn), 13.1%.
As for `O=C(CN1C(=O)CC(c2ccccc2)=Nc2ccccc21)NCc1ccco1`, the figure is 4.88%; as for `CCc1ccc(S(=O)(=O)N2CC(=O)Nc3ccccc32)cc1`, 6.83%.
For `COc1cc(CN2CCCC(N3CCc4ccccc4C3)C2)c(Cl)cc1O` (stereo not drawn), the “hERG current change (%, negative = inhibition) at 1uM” value was 3.62%.
As for `O=C(CN1C(=O)/C(=C/c2ccccc2F)Oc2ccccc21)N1CCN(c2ccccn2)CC1`, the figure is 10.4%; as for `CNC(=O)c1c(NC(=O)CCS(=O)(=O)c2ccc(C)cc2)sc(C)c1C`, 12.4%.
In the case of `NC(=O)NCCCC(=O)OCC(=O)c1ccc2ccccc2c1`, the “hERG current change (%, negative = inhibition) at 1uM” value is reported as 7.37%.
For `COCc1cc(C)nc2sc(C(=O)OC)c(N)c12`, the “hERG current change (%, negative = inhibition) at 1uM” value is listed as 8.13%.
As for `Nc1ccccc1Sc1ccccc1[N+](=O)[O-]`, the figure is 2.25%.
As for `COc1ccc2nc3sc(C(=O)N4CCN(C)CC4)cc3cc2c1`, the figure is -12%; as for `Cc1ccc(N2C(=O)[C@@H]3[C@H](C2=O)[C@H]2C=CC=NN2[C@@H]3C(=O)Nc2ccc(Cl)cc2)cc1`, -5.19%.
On to `CC1CCCC(C)N1c1nnc(N)s1` (stereo not drawn), for which the “hERG current change (%, negative = inhibition) at 1uM” value worked out at 10.6%.
As for `N#Cc1ccsc1NC(=O)CN1CCN(c2ccccn2)CC1`, the figure is -0.508%.
Turning to `O=C(O)CCCC[C@@H]1SC[C@@H]2NC(=O)N[C@@H]21`, the “hERG current change (%, negative = inhibition) at 1uM” value amounted to 3.57%.
Turning to `COc1ccc(-n2cccc2/C=C2/NC(=O)N(c3cccc(Cl)c3)C2=O)cc1`, the “hERG current change (%, negative = inhibition) at 1uM” value is 7.56%.
As for `O=C(Nc1ccc2c(c1)OCCO2)c1cnn(-c2ccccc2)n1`, the figure is 3.15%.
As for `CC(=O)Nc1ccc(NC(=S)NC(=O)C2CCCC2)cc1`, the figure is -8.3%.
For `O=C1N[C@H](Cc2ccccc2)CO1`, the “hERG current change (%, negative = inhibition) at 1uM” value is given as 11.8%.
Consider `CCOc1ccc(NC(=O)Cn2cncc2-c2ccc([N+](=O)[O-])cc2)cc1`, for which the “hERG current change (%, negative = inhibition) at 1uM” value came out at 5.94%.
As for `CCN1CCN(CC(=O)c2c(C)n(Cc3ccccc3)c3ccc(OC)cc23)CC1`, the figure is -6.24%.
As for `Cc1cccc(NCC(=O)N/N=C\c2ccc[nH]2)c1`, the figure is 11.9%; as for `Cc1ccccc1-c1nnc(-c2ccccc2C)o1`, 12.8%; as for `CC(/C=C/c1ccccc1)=N\NC(=S)NC(C)C`, 8.31%.
As for `CCc1nc2sccc2c(=O)[nH]1`, the figure is 11.9%; as for `O=C1c2cccc3cccc(c23)C(=O)N1/N=C/c1ccc(O)cc1O`, 6.22%; as for `CN(C)CCCN(C(=O)c1ccc(S(=O)(=O)N(C)C)cc1)c1nc2cc3c(cc2s1)OCO3.Cl`, 16.8%.
`COCCN1Cc2cccc(C(=O)NCc3cccnc3)c2C1=O`: the “hERG current change (%, negative = inhibition) at 1uM” value is on record as 6.37%.
For the compound `CCCCN(C(=O)COC(=O)COc1c(C)cc(C)cc1C)c1c(N)n(CCC)c(=O)[nH]c1=O`, the “hERG current change (%, negative = inhibition) at 1uM” value came to 7.95%.
As for `COc1ccc([N+](=O)[O-])cc1NC(=O)C(C)OC(=O)C1CCC1` (stereo not drawn), the figure is 11%; as for `CCc1cc(C(=O)N/N=C/c2ccc(OC)cc2)c2ccccc2n1`, 8.3%.
As for `Cc1nc2ccc(CN(C)c3ccc(C(=O)N[C@@H](CCC(=O)O)C(=O)O)s3)cc2c(=O)[nH]1`, the figure is 14.6%.
As for `Cc1ccc(CNC(=O)c2ccc3c(c2)S(=O)(=O)c2ccccc2C3=O)cc1`, the figure is 2.33%; as for `CCN1CCc2nc3ccccc3c(C(=O)Nc3ccc(C#N)cc3)c2C1`, -65.8%.
Take `O=C(O)C(=O)O.O=C(c1cccc(Cl)c1)N1CCN(C2CCCCCC2)CC1`: the “hERG current change (%, negative = inhibition) at 1uM” value was -15.4%.
For `Cc1ccc(N2CC(C(=O)OCC(=O)c3ccc(C)c([N+](=O)[O-])c3)CC2=O)cc1` (stereo not drawn), the “hERG current change (%, negative = inhibition) at 1uM” value is on record as 14.3%.
As for `O=c1c2nnn(Cc3ccccc3)c2ncn1-c1ccccc1`, the figure is 19.3%; as for `Cc1cccc(OCC(=O)O/N=C(\N)Cc2ccc([N+](=O)[O-])cc2)c1`, 3.06%; as for `CCn1ncc(C2=NOC(C(=O)N3CCC(C(N)=O)CC3)C2)c1C` (stereo not drawn), 2.26%.
Turning to `COc1ccc(-c2csc(-c3cccs3)n2)c(OC)c1`, the “hERG current change (%, negative = inhibition) at 1uM” value was 10.2%.
As for `CCOC(=O)c1cc2c(=O)n3ccccc3nc2n(CCCOC)c1=NC(C)=O`, the figure is -15.6%; as for `CCOC(=O)c1c[nH]c(=S)n1C`, 13.4%; as for `CCCCn1c(SCC(=O)N2CCC(C(=O)OCC)CC2)nc2cc(S(N)(=O)=O)ccc21`, -36.1%.
On to `NS(=O)(=O)c1ccc(CCNc2ccnc3cc(Cl)ccc23)cc1`, for which the “hERG current change (%, negative = inhibition) at 1uM” value is given as 4.33%.
As for `Cc1ccc(-n2c(-c3ccccc3)c[n+]3c2CCC3)cc1.[Br-]`, the figure is -2.23%; as for `COC(=O)c1ccc(N2CCN(S(=O)(=O)c3ccccc3)CC2)c([N+](=O)[O-])c1`, -0.0184%.
As for `CCc1nc(-c2ccc(-c3ccc(OC)cc3)nc2OC)no1`, the figure is 13.5%.
For the compound `COC(=O)C1CCN(C(=O)C2CCC(=O)N(CCc3cccc(F)c3)C2)CC1` (stereo not drawn), the “hERG current change (%, negative = inhibition) at 1uM” value stood at 9.77%.
As for `CS(=O)(=O)N1CCC(C(=O)Nc2ccc3c(c2)OCCO3)CC1`, the “hERG current change (%, negative = inhibition) at 1uM” value was 7.2%.
As for `CN(C)c1ccc(/C=N/n2cnn(Cc3ccccc3Cl)c2=S)cc1`, the “hERG current change (%, negative = inhibition) at 1uM” value is 13.3%.
For the compound `CC(=O)Nc1ccc(S(=O)(=O)N(CC(=O)O)Cc2ccccc2)cc1`, the “hERG current change (%, negative = inhibition) at 1uM” value was 10.2%.
As for `COc1ccc(C)c2sc(N(CCCN(C)C)C(=O)c3ccc4c(c3)OCCO4)nc12.Cl`, the figure is -16.6%; as for `CC(NC(=O)COC(=O)/C=C/c1ccc(Cl)cc1)c1ccccc1` (stereo not drawn), 8.41%.
Consider `CCOP(=O)(OCC)C1(O)C(=O)Nc2ccc(Br)cc21` (stereo not drawn), for which the “hERG current change (%, negative = inhibition) at 1uM” value is -0.105%.
Take `CC1CCN(c2c(NCC3CCC(C(=O)N4CCCC(C)C4)CC3)c(=O)c2=O)CC1` (stereo not drawn): the “hERG current change (%, negative = inhibition) at 1uM” value is recorded as 10.3%.
As for `Cc1cc(O)c(NC(=O)c2cccc([N+](=O)[O-])c2)cc1C`, the figure is 8.03%.
As for `CCC1=NN(C(=O)COc2ccccc2)C(O)(c2ccncc2)C1` (stereo not drawn), the figure is 18.6%.
As for `CC1=Nc2ccccc2N=C(NC(=O)/C=C/C(=O)O)C1c1ccccc1` (stereo not drawn), the figure is 7.39%.
For the compound `COc1ccc(N(CC(=O)NCc2ccncc2)S(=O)(=O)c2ccc(C)c([N+](=O)[O-])c2)cc1`, the “hERG current change (%, negative = inhibition) at 1uM” value is recorded as -15.1%.
For the compound `CCOC(=O)c1c(NC(=O)CN2C(=O)C(=O)N(CC(C)C)C2=O)sc(C)c1CC`, the “hERG current change (%, negative = inhibition) at 1uM” value is on record as 16%.
Consider `CCc1cccc2c(C#N)cn(CC(=O)NCc3ccco3)c12`, for which the “hERG current change (%, negative = inhibition) at 1uM” value stood at 18.9%.
As for `CCOC(=O)C1=C(CN2CCN(C(=O)c3ccco3)CC2)NC(=O)NC1c1ccccc1` (stereo not drawn), the figure is 5.9%; as for `Cc1nc2ccccc2c(=O)n1NC(=O)C1CC1C` (stereo not drawn), 12.9%; as for `O=C(C1COc2ccccc2O1)N1CCn2c(nc3ccccc32)C1` (stereo not drawn), -15.7%.
As for `CCc1nc(N2CCN(C(=O)CCl)CC2)c2c3c(sc2n1)CC(C)CC3` (stereo not drawn), the figure is 9.17%.
As for `CC(C)n1cnc2c(NCc3ccc(S(N)(=O)=O)cc3)nc(NCc3ccc(S(N)(=O)=O)cc3)nc21`, the figure is 12.9%.
Regarding `O=C(NCC1CCCN1S(=O)(=O)c1cccs1)C(=O)Nc1ccc(F)cc1F` (stereo not drawn), the “hERG current change (%, negative = inhibition) at 1uM” value came out at 10.8%.
As for `O=[N+]([O-])c1ccc(Cc2nnc(-c3ccccc3Cl)o2)cc1`, the figure is 14.3%.
As for `O=C(NC(Cc1ccccc1)C(=O)O)/C(=C\c1ccc(F)cc1)NC(=O)c1ccco1` (stereo not drawn), the figure is 9.24%; as for `CC(=O)N1c2ccc(S(=O)(=O)NCC3CCC(C(=O)N4CCC(C)CC4)CC3)cc2CC1C` (stereo not drawn), 9.45%; as for `COc1ccc(S(=O)(=O)NCCN2CCNC2=O)cc1OC`, 13.6%.
With `CCOC(=O)c1c(NC(=O)CSc2nnc(CNC(=O)c3ccco3)n2C)sc2c1CCC2`, the “hERG current change (%, negative = inhibition) at 1uM” value is 6.18%.
As for `O=C(COC(=O)/C=C/c1ccc(S(=O)(=O)N2CCOCC2)cc1)NCc1ccc2c(c1)OCO2`, the figure is 18.8%; as for `CN(C)NC(=O)C12CCC(C)(C(=O)O1)C2(C)C` (stereo not drawn), 30.6%; as for `Fc1cccc(CO/N=C/c2c(-c3ccccc3)nc3ccc(Cl)cn23)c1`, 13.8%.
As for `COC(=O)c1sccc1NC(=O)Nc1ccc(C)cc1C`, the figure is 11.5%.
As for `O=c1c2ccccc2nc(CSc2ncnc3nc[nH]c23)n1-c1ccc(Cl)c(Cl)c1`, the figure is 9.51%; as for `Cc1ccc(NC(=O)c2cncc(Br)c2)nc1`, 2.25%.
As to `CCCCCn1c(=O)c(C(=O)c2ccccc2)nc2ccccc21`, the “hERG current change (%, negative = inhibition) at 1uM” value is recorded as -52.5%.
For `CCCCN1C[C@H](C)[C@@H](CC(=O)NCc2ccccc2)C1=O`, the “hERG current change (%, negative = inhibition) at 1uM” value was -1.29%.
As for `CC(C)c1ccc(NC(=O)CCC(=O)NCc2ccco2)cc1`, the figure is 7.99%.
